Assay results taken from the supplement of paper PMC10338343.
± gives the standard deviation. Whole data set: some 6,600 sequences, median “pre-steady-state target cleavage rate” near 0.07, cut for the highest 2% near 0.72. The list shows a part of the results, in another mix than the full data.

Tested on: MIWI (PIWIL1) piRISC loaded with Kctd7 piRNA (30 nt)
Assay: pre-steady-state target cleavage rate (min^-1); MIWI and MILI are mouse PIWI proteins and EfPiwi is from a freshwater sponge; tags in brackets are library labels; higher = faster piRNA-guided slicing of the target
Conditions: guide: Kctd7 piRNA 5'p-UGUUAAUCUCUCAGAGAAGGUGACAGUGAU; auxiliary factor: 500 nM mouse GTSF1
How it was run: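 The method was Cleave-'n-Seq, in which uncleaved targets from a transcribed, DNA-blocked target RNA library were sequenced after exposure to active affinity-purified piRISC carrying one synthetic guide, with or without GTSF1 partner protein. Reactions contained 0.1 nM library, 1 nM piRISC and, where present, 500 nM GTSF1 in HEPES–potassium acetate buffer at 33 °C for 0–8 or 0–960 min. Reads were normalised to depth and to weakly complementary targets, three trials were pooled, and k3 was capped at 0.0001 min^-1. The pre-steady-state cleavage rate came from a burst-and-steady-state fit.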

Row | Sequence | pre-steady-state target cleavage rate
1 | UAGUGUGUCGCCUUCUCUGAGAGAUUAACA | 0.496 ± 0.045
2 | UACAUCUGUCACCUUCUCUGAGAGAUUAACA | 0.66 ± 0.027
3 | UACACUGUCACCUUCUCUGAGAGAUAUAGA | 0.0276 ± 0.012
4 | UAGUGACUACACCUUCUCUGAGAGAUUAACA | 0.565 ± 0.033
5 | UAGUGUGUGACCUUCUCUGAGAGAUUAACA | 0.562 ± 0.034
6 | UACACUGUCACCUUCUCUGAGUCAUUAACA | 0.00872 ± 0.0023
7 | UUCACUGUCACCUUCUCUGAGAGAUAUAGA | 0.0837 ± 0.021
8 | UUCAGUGUCACCUUCUCUCAGAGAUUAACA | 0.0996 ± 0.0064
9 | UAGUGUGUCACCUUCUCUGACAGAUUAUGA | 0.00437 ± 0.0041
10 | UAGUGACAGUCCUUGUCUGAGAGAUUUACA | 0.00584 ± 0.0027
11 | UAGUGACACACCUUCACUGAGAGAUAAACA | 0.112 ± 0.022
12 | UACACUGUCACCUUCUCUGAGAGAUAACA | 0.151 ± 0.026
13 | UACAGUGUCACCUACUCUGAGAGAUUAACA | 0.585 ± 0.038
14 | UACACUGUCACCUUCUCUGUGAGAUUUACA | 0.19 ± 0.03
15 | AUCACUGUCACCUUCUCACAGAGAUUAACA | 0.0253 ± 0.0073
16 | UAGUGUGUCACCUUCUCUGAGAGUAAAAGA | 0.053 ± 0.021
17 | UAGUGACAGACCUUCUCUGAGAGAUUAAAA | 0.074 ± 0.015
18 | UUCACUGUCACCUUCUCUCAGAGAUUAUGA | 0.0222 ± 0.0082
19 | UACACUGUCACCUUCUCUGACAGAUUUACA | 0.0383 ± 0.011
20 | UAGUGACAGACCUUCUCUGAGAGAUUGAACA | 0.0387 ± 0.0074
21 | UAGUCUCACACCUUCUCUGAGAGAUUUUGA | 0.0199 ± 0.0063
22 | UAGUGACUCAGCUUCUCUCAGAGAUUAACA | 0.0105 ± 0.0034
23 | UAGUGAGUGACCUUCUCUGAGAGAUUUACA | 0.25 ± 0.032
24 | UAGACUGUGACCUUCUGUGAGAGAUUAACA | 0.314 ± 0.023

Row | Sequence | pre-steady-state target cleavage rate
25 | UAGUGAGUCACCUACUCUGAGAGAUAAACA | 0.275 ± 0.035
26 | AUCAGUGUCACCUUCUCUGAGAGAUUUACA | 0.27 ± 0.036
27 | AUCACAGUCACCUUCUCUGAGUGAUUAACA | 0.0408 ± 0.0084
28 | AUCACUGUCACCUUGAGUGAGAGAUUAACA | 0.0226 ± 0.012
29 | UAGUGACUCACCUUCCUCUGAGAGAUUAACA | 0.0564 ± 0.0091
30 | UAGUGUGUCACCUUCACUGAGAGAUUUACA | 0.168 ± 0.026
31 | UAGUCAGUCACCUUCUCUGAGUGAUUAACA | 0.0302 ± 0.0058
32 | UUGCACUGUCACCUUCUCUGAGAGAUUAACA | 0.781 ± 0.045
33 | UAGUGAGUCACCUUCUCUGAGAGAUUAACC [g2:g24:cont:t1C] | 0.328 ± 0.02
34 | UAGUGAGUCACCUUCUCUGUGACAUUAACA | 0.0411 ± 0.0085
35 | UACACUGAGACCUUCUCUGAGAGAUUUUGA | 0.0222 ± 0.0096
36 | UUCACUGUCACCUUCUCGGAGAGAUUAACA | 0.256 ± 0.018
37 | UUCACUGUCACCUUCUGUGAGAGAUAUUGA | 0.0244 ± 0.011
38 | UAGUGACAGUCCUGCUCUGAGAGAUUAACA | 0.0158 ± 0.0033
39 | UAGUGACAGACCUUCUCUGAGAGAUUAACC [g2:g21:cont:t1C] | 0.109 ± 0.012
40 | AUCACUGUCACCUUCUCUGAGAGAUAAUGA | 0.0523 ± 0.014
41 | UAGUGAGUCACCUUCUUCUGAGAGAUUAACA | 0.0316 ± 0.015
42 | UAGUGACAGUGCUUCUCUGAGAGUAUUAACA | 0.00419 ± 0.0027
43 | UAGUGACUCUCCUUCUCUGAGAGAUUAUGA | 0.00356 ± 0.0021
44 | UAGUCUGUCACCAUCUCAGAGAGAUUAACA | 0.11 ± 0.013
45 | UAGUCUGAGUCCUUCUCUGAGAGAUUAACA | 0.0581 ± 0.0078
46 | UACACUCACACCUUCUCUGAGAGAUUAAGA | 0.109 ± 0.023
47 | UAGUGAGUCACCUUCCUGAGAGAUUAACA | 0.0758 ± 0.021
48 | UAGUGACUCACCUUCUCUGUGAGUUUAACA | 0.0217 ± 0.0082

Row | Sequence | pre-steady-state target cleavage rate
49 | UAGUGACAGACCUUCUCUGAGAGAAUAACA | 0.0288 ± 0.0083
50 | UAGUCUGACUCCUUCUCUGAGAGAUUAACA | 0.237 ± 0.022
51 | UACACUGUGUCCUUCUCUGAGAGAUUAAGA | 0.0709 ± 0.014
52 | AUCAGUGUCACCUUGUCUGAGAGAUUAACA | 0.209 ± 0.029
53 | UAGUGACAGUGGAACUCUGAGACUAUAACA | 0.00936 ± 0.0093
54 | UAGUGACAGUGCUUCUCUGAGAGAUUCAACA | 0.00487 ± 0.0022
55 | UACACUGUCACCUACUCUGAGAGAUAAACA | 0.227 ± 0.024
56 | UAGUCUGUCAACCUUCUCUGAGAGAUUAACA | 0.256 ± 0.022
57 | UAGUGACAGUGGAAGUCUGAGAGACUUAACA | < 0.0001
58 | UAGUGUGUCACGUUCUCUGAGAGAUUAUGA | 0.0336 ± 0.0096
59 | UAGUGACUCACGUUCUCUCAGAGAUUAACA | 0.0111 ± 0.0034
60 | UACACUGUCACCUUCUCUAAGAGAUUAACA | 0.416 ± 0.022
61 | AUCAGACUCACCUUCUCUGAGAGAUAUUGA | 0.00457 ± 0.0024
62 | UAGUGACACACCUUCUCUGAGAGUAUUAACA | 0.224 ± 0.029
63 | UAGUGUGUCACCAAGUCUGAGAGAUUAACA | 0.0449 ± 0.0069
64 | UAGUGACUCACCUUGUCUGAGAGAUUAAGA | 0.0301 ± 0.013
65 | AUCACUGUCACCUUCUCUGUCUGAUUAUGA | 0.0195 ± 0.0084
66 | UAGUGACACAGCUUCUCUGAGAGAUAAACA | 0.0495 ± 0.0065
67 | UUCACUGUCAGGUUCUCUGAGAGAUUAUGA | 0.0127 ± 0.003
68 | AUCACUGUCAGGAUCUCUGAGAGAUUAACA | 0.225 ± 0.03
69 | UACACUGUCACCUCUCUGAGAGAUUAACA | 0.5 ± 0.035
70 | UUCACUGUCACCUUCUCUGAGAGAAUUACA | 0.42 ± 0.091
71 | UAGUGUGUCACCAUCUCUGUGAGAUUAACA | 0.149 ± 0.014
